Test results as given in PMC4336329 (PLoS ONE, 2015).
Among all 310,000 compounds or so, about 2,200 (0.71%) showed an effect of 50% or more. Effects have a minus sign here. This is one part of the list.

molecular target: human ether-à-go-go-related gene (hERG) potassium channel (human, UniProt Q12809); assay: primary screen, population patch clamp on CHO cells stably expressing hERG
Sequence (Q12809 whole entry, looked up): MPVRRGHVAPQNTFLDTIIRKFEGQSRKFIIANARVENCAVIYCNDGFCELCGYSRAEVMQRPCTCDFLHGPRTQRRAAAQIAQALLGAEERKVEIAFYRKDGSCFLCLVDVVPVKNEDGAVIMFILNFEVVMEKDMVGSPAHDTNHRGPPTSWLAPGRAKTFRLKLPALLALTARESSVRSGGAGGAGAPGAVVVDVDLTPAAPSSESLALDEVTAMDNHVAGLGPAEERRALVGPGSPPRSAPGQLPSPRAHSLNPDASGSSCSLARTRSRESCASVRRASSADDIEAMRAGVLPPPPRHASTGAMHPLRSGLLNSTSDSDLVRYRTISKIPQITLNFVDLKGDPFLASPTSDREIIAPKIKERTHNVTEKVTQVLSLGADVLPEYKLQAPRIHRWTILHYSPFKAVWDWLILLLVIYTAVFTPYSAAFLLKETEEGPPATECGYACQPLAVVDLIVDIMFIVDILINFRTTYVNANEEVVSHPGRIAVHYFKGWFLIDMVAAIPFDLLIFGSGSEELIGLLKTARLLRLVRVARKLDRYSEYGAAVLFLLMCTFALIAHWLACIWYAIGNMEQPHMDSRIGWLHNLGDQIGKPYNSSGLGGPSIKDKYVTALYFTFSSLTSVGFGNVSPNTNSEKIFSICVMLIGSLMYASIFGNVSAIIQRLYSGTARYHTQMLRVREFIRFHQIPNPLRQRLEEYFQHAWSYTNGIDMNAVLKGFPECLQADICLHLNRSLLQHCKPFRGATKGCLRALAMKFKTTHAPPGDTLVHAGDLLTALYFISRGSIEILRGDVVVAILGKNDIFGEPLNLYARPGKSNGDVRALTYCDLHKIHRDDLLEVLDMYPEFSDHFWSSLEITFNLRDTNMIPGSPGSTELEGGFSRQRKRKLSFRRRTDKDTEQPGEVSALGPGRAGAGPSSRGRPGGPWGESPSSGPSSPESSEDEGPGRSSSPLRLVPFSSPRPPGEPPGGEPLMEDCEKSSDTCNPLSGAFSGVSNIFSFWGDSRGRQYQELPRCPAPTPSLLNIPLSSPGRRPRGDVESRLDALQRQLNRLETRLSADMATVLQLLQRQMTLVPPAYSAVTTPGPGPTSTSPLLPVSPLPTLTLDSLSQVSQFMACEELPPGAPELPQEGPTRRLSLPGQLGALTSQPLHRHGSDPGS

SMILES | hERG current change (%, negative = inhibition) at 1uM
COc1ccc(S(=O)(=O)CC(O)CN2CCCC2=O)cc1 (stereo not drawn) | 21.4%
COC(=O)C1=C(C)NC(C)=C(C(=O)OCC2CCCO2)C1c1cccc(Br)c1 (stereo not drawn) | 7.88%
CC1(CCl)N([O-])C2=C(CCCC2)[N+]1=O (stereo not drawn) | 12.6%
CCOc1ccc(S(=O)(=O)NCCC(=O)OCN2C(=O)c3ccccc3C2=O)cc1 | -4.53%
N#Cc1c(C(F)(F)F)cc(C2CC2)[nH]c1=O | 13.9%
COC(=O)C(NC(=O)C(C)Oc1ccccc1)C(C)C (stereo not drawn) | 6.48%
Cn1cccc1P(=O)(c1cccn1C)c1cccn1C | 12.9%
CCOc1ccc(NC(=O)C2CCCN(S(=O)(=O)c3ccc4[nH]c(=O)ccc4c3)C2)cc1 (stereo not drawn) | 7.97%
Cc1ccc(-c2cc(C(=O)N3CCOCC3)c3cc(C)ccc3n2)cc1 | 9.61%
Cc1ccc(NC(=O)C(=O)NC(C)C2COc3ccccc3O2)cc1 (stereo not drawn) | 16%
C/C(CCN1CCCCc2nc(C)c(C)cc21)=N\O[C@H](C)c1cn([C@H](CO)Cc2ccccc2)nn1 | -16.7%
CSCCC(NC(=O)c1ccc(Cl)cc1)C(=O)NC(C)(C)C (stereo not drawn) | 10.5%
O=C(Nc1cccc(C(F)(F)F)c1)Oc1ccc(Cl)c2cccnc12 | 13.6%
Cc1ccc(N2C(=O)C3N=NN(CC(=O)N4N=C(c5cccc6ccccc56)CC4c4ccccc4)C3C2=O)cc1 (stereo not drawn) | 8.17%
CCc1ccccc1S(=O)(=O)Cc1ccc(C(=O)NCC2CCCO2)o1 (stereo not drawn) | -3.3%
COC(=O)c1cccc(NC(=S)Nc2cc(Cl)ccc2OC)c1 | 11.7%
CC(C)CNS(=O)(=O)c1cc(C(=O)OC2CCOC2=O)c(Cl)cc1Cl (stereo not drawn) | 10.5%
CCc1ccc(Nc2n[n+](-c3ccccc3)c(-c3ccc(OC)c(Br)c3)s2)cc1.[Cl-] | 10.1%
Cc1cc(/C=C2\C(=O)NC(=O)N(c3ccccc3F)C2=O)c(C)n1-c1cc(C(=O)O)cc(C(=O)O)c1 | 10.6%
Cc1cc(C)c2nc(SC(C)C(=O)NCC(=O)Nc3ccc(F)c(F)c3F)cc(C)c2c1 (stereo not drawn) | 14.8%
COCCN(C(=O)COC(=O)c1ccco1)c1c(N)n(Cc2ccccc2)c(=O)[nH]c1=O | 1.95%
COc1cc2c(cc1OC)C(c1cc3cc(OC)c(OC)cc3[nH]c1=O)N(C(=O)C1CC1)CC2 (stereo not drawn) | 12.9%

SMILES | hERG current change (%, negative = inhibition) at 1uM
CC(=O)Nc1ccc(N/C=C/C(=O)c2ccc(Cl)cc2)cc1 | 14.3%
CCOC(=O)CNS(=O)(=O)c1ccc(S(=O)(=O)NC2CC2)cc1 | 13.9%
c1ccc(CSc2nnc3c4ccccc4c4ccccc4c3n2)cc1 | 11.7%
COc1ccc(-n2cnc3cc(NC(=O)c4ccco4)ccc32)cc1 | -6.01%
CC(=O)Nc1ccc(Nc2cc(C)nc3c(-c4ccc(Cl)cc4)cnn23)cc1 | 8.99%
CCCCNC(=O)C1CCN(S(=O)(=O)N2CCCCCC2)CC1 | -0.918%
Cc1ccc(-c2cccc(NC(=O)C3C(C(=O)O)[C@@H]4C=C[C@H]3C4)c2)o1 (stereo partly drawn) | 5.51%
Cc1cc(C(=O)NC2CC(C)(C)Cc3c2cnn3-c2ccc(F)cc2)nn1C (stereo not drawn) | 5.91%
N#Cc1c(CSCC(=O)O)cc(=O)n2c1[nH]c1ccccc12 | 16.8%
NC(=O)CSc1nnc(-c2ccccc2)c(-c2ccccc2)n1 | 11.3%
O=C(CCSCc1ccccc1F)NCc1cccs1 | 4.18%
COCCn1c(-c2ccsc2)nc2c1c(=O)[nH]c(=O)n2CC(C)C | 1.56%
Cc1ccc(-c2nc3cnccn3c2Nc2ccc3c(c2)OCO3)o1 | -8.81%
OC(c1ccc(F)cc1)(c1ccc(F)cc1)[C@@H]1CCCN1 | 4.39%
COc1ccc(C2CC(c3ccc(Cl)cc3Cl)Nc3nc(N)nn32)cc1 (stereo not drawn) | -5.3%
CCC(OC(=O)c1nsc(Cl)c1Cl)C(=O)NCC1CCCO1 (stereo not drawn) | 11.5%
COc1ccc(CN(Cc2ccc(C(=O)O)cc2)C(=S)Nc2cccc(C)c2)cc1OC | 21%
CCCc1nc2ccccc2c(C(=O)OCC(=O)Nc2c(C)n(C)n(-c3ccccc3)c2=O)c1CC | 6.45%
O=C(NCc1ccc2c(c1)OCO2)c1c(O)nc2sccn2c1=O | 16.8%
CC(=O)c1ccc([N+](=O)[O-])c(CS(=O)(=O)c2ccccc2)c1 | 16.3%
OC(Cn1cncn1)(c1ccc(F)cc1)c1ccc(Cl)cc1 (stereo not drawn) | 13.9%
COc1ccc(C2OC(=O)CC2C(=O)N2CCN(c3cc(Cl)ccc3C)CC2)cc1OC (stereo not drawn) | 7.68%

SMILES | hERG current change (%, negative = inhibition) at 1uM
COc1ccc(/C=N/NC(=O)CCc2c(C)n[nH]c2C)cc1OC | 16%
CC(=O)[O-].[K+].c1ccc2c(c1)OCCOCCOc1ccccc1OCCOCCO2 | -80.7%
COc1ccccc1C(=O)NC(CCSC)C(=O)OCC(=O)NC(=O)NCc1ccco1 (stereo not drawn) | 2.81%
CC(Nc1ccc(Br)cc1)C(=O)N/N=C/c1ccccc1OCc1ccccc1 (stereo not drawn) | 8.25%
CCOc1ccc(NC(=O)COC(=O)Cc2ccc(S(=O)(=O)N3CCOCC3)s2)cc1 | 2.84%
C=CCn1c(Cc2ccccc2)nc2c(cnn2-c2ccccc2)c1=O | -11.9%
O=C(NCc1ccco1)c1ccc(C(F)(F)F)cc1 | 13.5%
Cc1cc(C)c(C#N)c(Sc2ccc(N)cc2)n1 | 0.433%
COc1ccc(Cl)cc1NC(=O)CN(C)C(=O)C1CCN(C(=O)Nc2ccccc2)CC1 | -10.8%
CCN(CC)S(=O)(=O)c1ccc(C2=NOC3(C2)N(C)c2ccccc2C3(C)C)cc1 (stereo not drawn) | 2.73%
Cc1nc2ccc3nc(NC(=O)c4ccco4)sc3c2s1 | -4.05%
COc1ccc(-c2nc(=S)n3ccsc3n2)cc1OC | 8.81%
O=C(Nc1ccc2c(c1)OCCO2)c1cccc(S(=O)(=O)N2CCCCC2)c1 | -2.76%
Cc1ccc(S(=O)(=O)N2CCOCC2)cc1NC(=O)CNCc1ccccn1.O=C(O)C(=O)O | 6.75%
CCC1CN(C(=O)Nc2ccc(C)cc2)c2cc(C)ccc2O1 (stereo not drawn) | 11.2%
CC1=C(C(=O)OCc2ccccc2)C(c2ccccc2Cl)NC(=O)N1CCCCCC(=O)O (stereo not drawn) | 10.4%
Cc1ccc(S(=O)(=O)NCC(=O)OCC(=O)c2cccs2)cc1 | 0.484%
Cc1nc(N2CCOCC2)c2oc3ccccc3c2n1 | 6.52%
CCOC(=O)N1CCC(c2cc(=O)n(-c3ccccc3)[nH]2)CC1 | 26.8%
CCNC(=S)NC1CC2CCCC(C1)N2CCc1ccccc1 (stereo not drawn) | -17.8%
N#Cc1c(SCC(=O)Nc2nccs2)nc2c(c1-c1ccco1)CCCC2 | 2.94%
Cc1c(F)cccc1NC(=O)CSCC(=O)Nc1ccccc1 | 5.59%

SMILES | hERG current change (%, negative = inhibition) at 1uM
Cc1ccc(NC(=O)C(C)NC(=O)OCc2ccccc2)cc1C (stereo not drawn) | 14.1%
COc1ccc(C(F)(F)F)cc1N/C=C/c1nnnn1-c1ccc(C)cc1 | 17.7%
CN(C)S(=O)(=O)c1ccc(C(=O)NCC2(N3CCOCC3)CCCCC2)cc1 | 3.52%
Cc1ccc(C)c(OCCCC(=O)Nc2ccccc2C(N)=O)c1 | 1.78%
O=C(O)CCCn1c(=O)c2cccn2c2ccc(F)cc21 | 4.1%
CCCC1Cc2[nH]c(=O)c(C#N)cc2CO1 (stereo not drawn) | 12%
COc1cc(NC(=S)NC(C)(C)C)c(OC)cc1Cl | 11.2%
CC(C)CCNC(=O)c1c(N)n(Cc2ccc3c(c2)OCO3)c2nc3ccccc3nc12 | 11.9%
CS(=O)(=O)c1ccc(C(=O)NC2CCCCC2)cc1 | 10.5%
Cc1nc2ncnn2c(C)c1CCC(=O)N1CCCCC1 | 14.6%
CCCCn1c(N)c(N(CC(C)C)C(=O)c2cccc(S(=O)(=O)N(C)c3ccc(C)cc3)c2)c(=O)[nH]c1=O | 9.34%
COC(=O)NCN1C(=O)C2C3C=CC(C3)C2C1=O (stereo not drawn) | 11.5%
COc1ccc(C(=O)NNC(=O)CSc2nnc(C)n2C)cc1 | 19%
S=C(NCc1ccccc1)N1CCN(C(=S)NCc2ccccc2)CC1 | 16.8%
O=C(NCCCn1ccnc1)c1nn2c(C(F)(F)F)cc(-c3ccc(Br)cc3)nc2c1Cl | -1.16%
CCCc1nc(N2CCOCC2)c(C#N)c2c1CCCC2 | 12.6%
CN(CC(=O)Nc1ccccc1Cl)C(=O)COC(=O)CCN1C(=O)C2CC=CCC2C1=O (stereo not drawn) | 8.86%
Cc1ccc(N2Cc3ccccc3C2=S)cc1 | 11.2%
O=C(CSc1nnc(-c2ccccn2)n1Cc1ccco1)c1ccc(Cl)cc1 | -9.97%
Nc1ccc(NC(=O)Nc2ccc(N)cc2)cc1 | 18%
CC(CCc1ccccc1)NC(=S)NC(=O)c1ccco1 (stereo not drawn) | 5.49%
